Experiment [1] concerns HSkMC (human skeletal muscle cells). Briefly: cytotoxicity call (relative viability < 0.9). To be noted: 10 µM.
In experiment [2] the test system is HepG2. Put plainly: cytotoxicity call (relative viability < 0.9). To be noted: 10 µM.
The subject of experiment [3] is S. aureus RN4220. Briefly: growth inhibition call (relative growth <= 0.2). To be noted: 50 µM.

Data on 27 molecules can be found in the antibiotic and cytotoxicity screens of Wong et al. (2023).

Some of the results follow.

Consider `O=C(O)c1cc2ccccc2c(Cc2c(O)c(C(=O)O)cc3ccccc23)c1O.OCCOCCN1CCN(C(c2ccccc2)c2ccc(Cl)cc2)CC1`, for which the cytotoxicity call in experiment [1] and in experiment [2] was “inactive” each time. Also, the growth inhibition call in experiment [3] was “inactive”.
With `C[C@H](CO)N1C[C@H](C)[C@@H](CN(C)C(=O)Nc2ccc(C(F)(F)F)cc2)Oc2c(NC(=O)c3ccc(-c4nccs4)cc3)cccc2C1=O`, the cytotoxicity call in experiment [1] and in experiment [2] was “inactive” each time. Besides, in experiment [3], the growth inhibition call was “inactive”.
As for `Cc1ccc(-c2ccc3c(c2)O[C@H](CN(C)C(=O)CN(C)C)[C@H](C)CN([C@H](C)CO)S3(=O)=O)cc1`, the cytotoxicity call in experiment [1] and in experiment [2] was “inactive” throughout. The growth inhibition call in experiment [3] was “inactive”.
In the case of `C[C@@H]1CN([C@@H](C)CO)C(=O)c2cc(/C=C/c3ccccc3)cnc2O[C@@H]1CN(C)C(=O)Nc1ccc(C(F)(F)F)cc1`, the cytotoxicity call in experiment [1] and in experiment [2] was “inactive” in each case. Moreover, in experiment [3], the growth inhibition call is “inactive”.
In the case of `C[C@H]1CN([C@@H](C)CO)C(=O)Cc2cc(NC(=O)Nc3ccccc3)ccc2O[C@H]1CN(C)S(C)(=O)=O`, the cytotoxicity call in experiment [1] and in experiment [2] was “inactive” throughout. Further, the growth inhibition call in experiment [3] was “inactive”.
In the case of `C[C@H](CO)N1C[C@H](C)[C@@H](CN(C)S(=O)(=O)c2ccc(F)cc2)Oc2ccc(NC(=O)CCCN(C)C)cc2C1=O`, the cytotoxicity call in experiment [1] and in experiment [2] was “inactive” in each case. The growth inhibition call in experiment [3] is “inactive”.
On to `O=C(C[C@H]1C[C@H]2c3cc(NC(=O)C4CCOCC4)ccc3O[C@H]2[C@H](CO)O1)NCCN1CCCCC1`, for which the cytotoxicity call in experiment [1] and in experiment [2] was “inactive” each time. In addition, the growth inhibition call in experiment [3] is “inactive”.
As for `C[C@H](CO)N1C[C@H](C)[C@H](CN(C)CC2CCCCC2)Oc2c(NC(=O)Nc3ccc(F)cc3)cccc2C1=O`, the cytotoxicity call in experiment [1] and in experiment [2] was “inactive” throughout. The growth inhibition call in experiment [3] was “inactive”.
For the molecule `C[C@@H]1CCCCO[C@@H](CN(C)Cc2ccncc2)[C@@H](C)CN([C@H](C)CO)C(=O)c2cc(NC(=O)Nc3ccc(C(F)(F)F)cc3)ccc2O1`, in experiment [1], the cytotoxicity call was “inactive”. Besides, in experiment [2], the cytotoxicity call is “active”. The growth inhibition call in experiment [3] was “inactive”.
For the molecule `CC(=O)Oc1ccccc1C(=O)Nc1ncc([N+](=O)[O-])s1`, the cytotoxicity call in experiment [1] and in experiment [2] was “active” each time. Also, the growth inhibition call in experiment [3] is “active”.
As for `C[C@@H]1CN([C@H](C)CO)C(=O)c2cc(NC(=O)Nc3ccc(C(F)(F)F)cc3)ccc2O[C@@H]1CN(C)Cc1ccccc1`, in experiment [1], the cytotoxicity call was “inactive”. Besides, the cytotoxicity call in experiment [2] was “active”. For the same molecule, the growth inhibition call in experiment [3] is “inactive”.
Take `CC(C)(O/N=C(\C(=O)N[C@@H]1C(=O)N2C(C(=O)O)=C(C[n+]3ccccc3)CS[C@H]12)c1csc(N)n1)C(=O)O`: the cytotoxicity call in experiment [1] and in experiment [2] was “inactive” in each case. In experiment [3], the growth inhibition call is “inactive”.
Take `NCC[C@H]1CC[C@@H](NC(=O)c2ccccc2F)[C@H](CO)O1`: the cytotoxicity call in experiment [1] and in experiment [2] was “inactive” each time. Besides, the growth inhibition call in experiment [3] was “inactive”.
Turning to `C[C@@H]1CN([C@H](C)CO)S(=O)(=O)c2ccc(Br)cc2O[C@@H]1CN(C)Cc1ccc(-c2ccccc2)cc1`, the cytotoxicity call in experiment [1] and in experiment [2] was “inactive” each time. Also, the growth inhibition call in experiment [3] was “inactive”.
`C[C@@H]1CCCCO[C@@H](CN(C)S(=O)(=O)c2ccc(Cl)cc2)[C@H](C)CN([C@@H](C)CO)C(=O)c2cc(NC(=O)c3ccccc3)ccc2O1`: the cytotoxicity call in experiment [1] and in experiment [2] was “inactive” throughout. The growth inhibition call in experiment [3] is “inactive”.
Regarding `COc1ccc(NC(=O)N(C)C[C@H]2Oc3ncc(C#CCN(C)C)cc3C(=O)N([C@H](C)CO)C[C@H]2C)cc1`, the cytotoxicity call in experiment [1] and in experiment [2] was “inactive” each time. The growth inhibition call in experiment [3] is “inactive”.
Consider `CC(C)CNC(=O)[C@@]1(C)c2ccccc2C(=O)N(Cc2cc(C(F)(F)F)cc(C(F)(F)F)c2)[C@H]1c1ccc(CO)cc1`, for which the cytotoxicity call in experiment [1] and in experiment [2] was “inactive” each time. Besides, the growth inhibition call in experiment [3] is “inactive”.
As to `C[C@@H]1CCCCO[C@H](CN(C)C(=O)Nc2cccc3ccccc23)[C@H](C)CN([C@@H](C)CO)C(=O)c2cc(NS(=O)(=O)c3ccc(F)cc3)ccc2O1`, the cytotoxicity call in experiment [1] is “inactive”. Further, in experiment [2], the cytotoxicity call was “active”. The growth inhibition call in experiment [3] was “inactive”.
Regarding `C[C@H](CO)N1C[C@H](C)[C@H](CN(C)S(C)(=O)=O)Oc2ccc(NC(=O)Nc3ccccc3)cc2C1=O`, the cytotoxicity call in experiment [1] and in experiment [2] was “inactive” each time. Further, the growth inhibition call in experiment [3] was “inactive”.
For `C[C@@H](NC(=O)C[C@H]1C=C[C@H](NC(=O)CN2CCOCC2)[C@@H](CO)O1)c1ccccc1`, the cytotoxicity call in experiment [1] and in experiment [2] was “inactive” in each case. In addition, in experiment [3], the growth inhibition call was “inactive”.
Turning to `COc1ccc(S(=O)(=O)N(C)C[C@H]2Oc3ccc(NC(=O)c4ccncc4)cc3CC(=O)N([C@H](C)CO)C[C@H]2C)cc1`, the cytotoxicity call in experiment [1] and in experiment [2] was “inactive” each time. For the same molecule, the growth inhibition call in experiment [3] was “inactive”.
Consider `COc1ccc(CN(C)C[C@H]2OCCCC[C@H](C)Oc3ccc(NC(=O)Nc4c(C)noc4C)cc3C(=O)N([C@@H](C)CO)C[C@@H]2C)cc1`, for which the cytotoxicity call in experiment [1] and in experiment [2] was “inactive” each time. Also, in experiment [3], the growth inhibition call was “inactive”.
With `COCC(=O)Nc1ccc2c(c1)OC[C@H](C)N(C(=O)Cc1cccnc1)C[C@@H](C)[C@@H](OC)CN(C)C2=O`, the cytotoxicity call in experiment [1] and in experiment [2] was “inactive” in each case. In addition, the growth inhibition call in experiment [3] was “inactive”.
Turning to `C[C@H](CO)N1C[C@H](C)[C@H](CN(C)Cc2ccc(C(F)(F)F)cc2)OCCCC[C@H](C)Oc2ccc(NS(C)(=O)=O)cc2C1=O`, the cytotoxicity call in experiment [1] and in experiment [2] was “inactive” each time. Further, the growth inhibition call in experiment [3] is “inactive”.
Consider `Cn1cc(S(=O)(=O)N2CCN(c3ccccc3F)CC2)c(=O)n(C)c1=O`, for which the cytotoxicity call in experiment [1] and in experiment [2] was “inactive” throughout. Moreover, in experiment [3], the growth inhibition call is “inactive”.
`C[C@@H]1CN([C@H](C)CO)C(=O)c2cc(NC(=O)Nc3ccccc3)ccc2O[C@@H](C)CCCCO[C@@H]1CN(C)Cc1ccc(C(F)(F)F)cc1`: the cytotoxicity call in experiment [1] is “inactive”. Further, the cytotoxicity call in experiment [2] was “active”. Also, in experiment [3], the growth inhibition call was “inactive”.
Take `C[C@@H]1CCCCO[C@@H](CN(C)Cc2ccccc2)[C@H](C)CN([C@H](C)CO)C(=O)c2cc(NC(=O)Nc3ccc(F)cc3)ccc2O1`: the cytotoxicity call in experiment [1] and in experiment [2] was “inactive” throughout. Also, the growth inhibition call in experiment [3] was “inactive”.
